Data taken from the supplement of paper PMC10126150.
Sequences with one replicate were seen in a single cluster, so their values are uncertain.

Test system: ATP
Assay: switch fluorescence ratio, 500 uM ATP over buffer (Cy3 cluster intensity, sum of 5 cycles each) (fold (ratio)); higher = stronger signal-on switching upon ATP binding; sequences stand for … in TCGTCGGCAGCGTCAGATGTGTATAAGAGACAGTTTTTTTTTTTTTTTTTTTTTTTTT…TC
Details: aptamer strand: ATP DNA aptamer (quencher-CACCTGGGGGAGTATTGCGGAGGAAGG + anchor), 100 nM annealed; ATP concentration: 500 uM; one replicate
Method in brief: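 Cy3-labelled switching-strand clusters on a modified Illumina MiSeq flow-cell were annealed to 100 nM quencher-labelled ATP aptamer, imaged in selection buffer, then imaged after 15 min with 500 uM ATP at 22 °C. Five buffer/ATP cycles ran, with NaOH stripping and re-annealing between them. The fluorescence ratio is summed target-cycle over summed buffer-cycle Cy3 intensity per cluster, averaged per switch-domain sequence. Clusters outside 100-1000 RFU were excluded.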
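Further: ATP exposure 15 min at 22 °C before imaging.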

Row | Sequence | switch fluorescence ratio
1 | AACAATCTTT | 0.999
2 | AGAACAGCCT | 1.09
3 | ATAAGGAGTC | 0.983
4 | CTCAACGGCA | 1.04
5 | CACTGGCGAA | 1.03
6 | GTTGCACTTC | 0.985
7 | CGGCGGCATT | 1.08
8 | GGCATCGGAG | 0.981
9 | GATTTCTCTC | 0.995
10 | ACCTAGTTGT | 1.06
11 | CATCAGTGGC | 1.06
12 | CGAACGTCGG | 1.01
13 | ATCAGGTTTC | 1.06
14 | TAGTTAGACC | 0.985
15 | CGGCACCGT | 0.995
16 | CGGTTTTCT | 1
17 | ACCGAACTGG | 1.12
18 | AGTATGACTT | 0.966
19 | AACAAGTCTG | 1.12
20 | TCACCCCGC | 1.24
21 | TGAATTTGC | 0.969
22 | TCGGTCAGGC | 1.01

Row | Sequence | switch fluorescence ratio
23 | CCGATATGTT | 1.05
24 | GTGCTACGGG | 1.01
25 | CTACATAACT | 1.19
26 | TGTTTCGTTA | 0.997
27 | TGGTAGCCA | 1.03
28 | CGGCGGTAGA | 1.01
29 | CCCTTGGTTC | 1.03
30 | CCTGAGTTGG | 1.02
31 | TTAAGAGAAA | 0.974
32 | AAACAGCTAT | 1.07
33 | GAAGATTCTG | 1.01
34 | ACCACCTCGG | 1.07
35 | GGGGAGGTGG | 1.01
36 | CTGGCGAGAA | 1
37 | CCTGGGTTGC | 1.05
38 | ATTGCCCCGG | 1.26
39 | CAGCAGTTGT | 0.994
40 | GGATGTATGC | 1.1
41 | GCAGGGAGAA | 0.991
42 | AGGGCACCAA | 1.06
43 | CAAATTTTAG | 0.989
44 | GACCTAATTC | 1.05

Row | Sequence | switch fluorescence ratio
45 | GTCAATTCAC | 1.12
46 | GAGGTACTTA | 1.01
47 | CCCTAACTTG | 1.04
48 | GGAGAAAGAA | 1.03
49 | GGCGGTTTGC | 1.01
50 | TCGTCATTAT | 1.04
51 | ACGGCTGTCT | 1.11
52 | ACATTATTGG | 1.04
53 | GGTAGGTTAG | 0.963
54 | TACATACGT | 1.34
55 | TATGTAAGAT | 0.978
56 | GTGCTGTTTT | 0.984
57 | GCAGATCCG | 1.04
58 | TCATCCAAAG | 1.13
59 | GCTTGGA | 1.02
60 | GATCTTTGAG | 0.942
61 | TGGGCAAAA | 1.1
62 | TAAGCCATTT | 1
63 | CCCTGAGTAA | 1.46
64 | ATGAGCG | 1.01
65 | GAGCGTATAA | 1.03
66 | CTGGTGAAAT | 1

Row | Sequence | switch fluorescence ratio
67 | GAAATCGGGA | 1.05
68 | GCTGAGGGGC | 0.945
69 | GTAGCTGCAG | 0.959
70 | GGCCGGGATA | 1.03
71 | ATTATAAAGG | 1
72 | GCGGTTAGGG | 0.98
73 | GAATTGATAC | 1.05
74 | GCCATAAGTC | 1.28
75 | CCGAAGTCAT | 3.91
76 | CAACGGCTCT | 1.01
77 | ACGTGCATTG | 0.977
78 | AATTTCTTCA | 1.03
79 | TCATGTGTGC | 1.03
80 | AGAATACAAG | 0.986
81 | GATGTGATGC | 1.64
82 | CAGTCATACT | 1.1
83 | AAGAAGAATA | 1
84 | TAATGGGTAC | 1
85 | GGGCACTGTA | 1.03
